In the supplement of paper PMC8728848:
This is one part of the list.

Experiments:
Test in all cases: glycan array binding signal (z-score within array); higher = stronger binding
Settings in all cases: glycan notation: IUPAC condensed, linker removed
[1] = molecular target: Gal(b1-4)GlcNAc(b1-3)GalNAc
Summary of the method: (§1)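 Columns mapping to the same glycan were averaged after glycan names were converted to IUPAC-condensed notation. The data come from 3228 arrays in the Consortium for Functional Glycomics database, limited to those with an available protein sequence. Binding is reported as a within-array Z-score averaged across arrays of one protein sequence and across linkers.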

[2] = molecular target: Gal(b1-4)GlcNAc(b1-3)[Gal(b1-4)GlcNAc(b1-6)]GalNAc
Summary of the method: as §1

[3] = molecular target: Gal(b1-4)GlcNAc(b1-6)Gal(b1-4)GlcNAc(b1-6)GalNAc
Summary of the method: as §1

[4] = molecular target: Gal(b1-4)GlcNAc(b1-6)GalNAc
Summary of the method: as §1

[5] = molecular target: Gal(b1-4)GlcNAc(b1-6)[Gal(b1-3)]GalNAc
Summary of the method: as §1

[6] = molecular target: Gal3S(b1-3)GalNAc
Summary of the method: as §1

[7] = molecular target: Gal3S(b1-3)GlcNAc
Summary of the method: as §1

[8] = molecular target: Gal3S(b1-3)[Fuc(a1-4)]GlcNAc
Summary of the method: as §1

[9] = molecular target: Gal3S(b1-4)Glc
Summary of the method: as §1

[10] = molecular target: Gal3S(b1-4)Glc6S
Summary of the method: as §1

[11] = molecular target: Gal3S(b1-4)GlcNAc
Summary of the method: as §1

[12] = molecular target: Gal3S(b1-4)GlcNAc6S
Summary of the method: as §1

[13] = molecular target: Gal3S6S(b1-4)GlcNAc
Summary of the method: as §1

[14] = molecular target: Gal3S6S(b1-4)GlcNAc6S
Summary of the method: as §1

[15] = molecular target: Gal4S(b1-4)GlcNAc
Summary of the method: as §1

[16] = molecular target: Gal4S6S(b1-4)GlcNAc
Summary of the method: as §1

[17] = molecular target: Gal6S(b1-4)Glc
Summary of the method: as §1

[18] = molecular target: Gal6S(b1-4)Glc6S
Summary of the method: as §1

[19] = molecular target: Gal6S(b1-4)GlcNAc
Summary of the method: as §1

[20] = molecular target: GalNAc(a1-3)Gal
Summary of the method: as §1

[21] = molecular target: GalNAc(a1-3)GalNAc
Summary of the method: as §1

[22] = molecular target: GalNAc(b1-3)Gal(a1-4)Gal(b1-4)GlcNAc
Summary of the method: as §1

[23] = molecular target: GalNAc(b1-3)GalNAc
Summary of the method: as §1

[24] = molecular target: GalNAc(b1-4)GlcNAc
Summary of the method: as §1

[25] = molecular target: Glc(a1-4)Glc
Summary of the method: as §1

[26] = molecular target: Glc(a1-6)Glc(a1-6)Glc
Summary of the method: as §1

[27] = molecular target: Glc(b1-4)Glc
Summary of the method: as §1

[28] = molecular target: Glc(b1-6)Glc
Summary of the method: as §1

[29] = molecular target: GlcA(b1-3)Gal
Summary of the method: as §1

[30] = molecular target: GlcA(b1-6)Gal
Summary of the method: as §1

[31] = molecular target: GlcNAc(a1-3)Gal(b1-4)GlcNAc
Summary of the method: as §1

[32] = molecular target: GlcNAc(a1-6)Gal(b1-4)GlcNAc
Summary of the method: as §1

[33] = molecular target: GlcNAc(b1-2)Gal(b1-3)GalNAc
Summary of the method: as §1

[34] = molecular target: GlcNAc(b1-2)Man(a1-3)[GlcNAc(b1-2)Man(a1-6)]Man(b1-4)GlcNAc(b1-4)GlcNAc
Summary of the method: as §1

[35] = molecular target: GlcNAc(b1-3)Gal
Summary of the method: as §1

[36] = molecular target: GlcNAc(b1-3)Gal(b1-3)GalNAc
Summary of the method: as §1

[37] = molecular target: GlcNAc(b1-3)Gal(b1-4)Glc
Summary of the method: as §1

[38] = molecular target: GlcNAc(b1-3)Gal(b1-4)GlcNAc
Summary of the method: as §1

[39] = molecular target: GlcNAc(b1-3)Gal(b1-4)GlcNAc(b1-3)Gal(b1-4)GlcNAc
Summary of the method: as §1

[40] = molecular target: GlcNAc(b1-3)GalNAc
Summary of the method: as §1

[41] = molecular target: GlcNAc(b1-3)[GlcNAc(b1-6)]Gal(b1-4)GlcNAc
Summary of the method: as §1

[42] = molecular target: GlcNAc(b1-3)[GlcNAc(b1-6)]GalNAc
Summary of the method: as §1

[43] = molecular target: GlcNAc(b1-3)[GlcNAc(b1-6)]GlcNAc(b1-4)GlcNAc
Summary of the method: as §1

[44] = molecular target: GlcNAc(b1-4)Gal(b1-4)GlcNAc
Summary of the method: as §1

[45] = molecular target: GlcNAc(b1-4)GlcNAc(b1-4)GlcNAc
Summary of the method: as §1

[46] = molecular target: GlcNAc(b1-4)GlcNAc(b1-4)GlcNAc(b1-4)GlcNAc(b1-4)GlcNAc
Summary of the method: as §1

[47] = molecular target: GlcNAc(b1-4)GlcNAc(b1-4)GlcNAc(b1-4)GlcNAc(b1-4)GlcNAc(b1-4)GlcNAc
Summary of the method: as §1

[48] = molecular target: GlcNAc(b1-4)[GlcNAc(b1-6)]GalNAc
Summary of the method: as §1

[49] = molecular target: GlcNAc(b1-6)Gal(b1-4)GlcNAc
Summary of the method: as §1

[50] = molecular target: GlcNAc(b1-6)GalNAc
Summary of the method: as §1

[51] = molecular target: Kdn(a2-3)Gal(b1-3)GlcNAc
Summary of the method: as §1

[52] = molecular target: Kdn(a2-3)Gal(b1-4)GlcNAc
Summary of the method: as §1

[53] = molecular target: Man(a1-2)Man(a1-2)Man(a1-3)Man
Summary of the method: as §1

[54] = molecular target: Man(a1-2)Man(a1-2)Man(a1-6)[Man(a1-3)]Man
Summary of the method: as §1

[55] = molecular target: Man(a1-2)Man(a1-3)Man
Summary of the method: as §1

[56] = molecular target: Man(a1-2)Man(a1-3)[Man(a1-2)Man(a1-6)]Man
Summary of the method: as §1

[57] = molecular target: Man(a1-2)Man(a1-3)[Man(a1-2)Man(a1-6)]Man(a1-6)[Man(a1-2)Man(a1-2)Man(a1-3)]Man(b1-4)GlcNAc(b1-4)GlcNAc
Summary of the method: as §1

[58] = molecular target: Man(a1-2)Man(a1-3)[Man(a1-6)]Man(a1-6)[Man(a1-2)Man(a1-3)]Man(b1-4)GlcNAc(b1-4)GlcNAc
Summary of the method: as §1

[59] = molecular target: Man(a1-2)Man(a1-6)[Man(a1-3)]Man(a1-6)[Man(a1-2)Man(a1-2)Man(a1-3)]Man(b1-4)GlcNAc(b1-4)GlcNAc
Summary of the method: as §1

[60] = molecular target: Man(a1-3)[Man(a1-6)]Man
Summary of the method: as §1

[61] = molecular target: Man(a1-3)[Man(a1-6)]Man(a1-6)[Man(a1-2)Man(a1-3)]Man(b1-4)GlcNAc(b1-4)GlcNAc
Summary of the method: as §1

[62] = molecular target: Man(a1-3)[Man(a1-6)]Man(a1-6)[Man(a1-3)]Man(b1-4)GlcNAc(b1-4)GlcNAc
Summary of the method: as §1

[63] = molecular target: Man(a1-3)[Man(a1-6)]Man(b1-4)GlcNAc(b1-4)GlcNAc
Summary of the method: as §1

[64] = molecular target: Man(b1-4)GlcNAc
Summary of the method: as §1

[65] = molecular target: Neu5Ac(a2-3)Gal
Summary of the method: as §1

[66] = molecular target: Neu5Ac(a2-3)Gal(b1-3)GalNAc
Summary of the method: as §1

[67] = molecular target: Neu5Ac(a2-3)Gal(b1-3)GalNAc(b1-3)Gal(a1-4)Gal(b1-4)Glc
Summary of the method: as §1

[68] = molecular target: Neu5Ac(a2-3)Gal(b1-3)GalNAc(b1-3)Gal(b1-4)GlcNAc
Summary of the method: as §1

[69] = molecular target: Neu5Ac(a2-3)Gal(b1-3)GalNAc(b1-4)[Neu5Ac(a2-3)]Gal(b1-4)Glc
Summary of the method: as §1

[70] = molecular target: Neu5Ac(a2-3)Gal(b1-3)GalNAc6S
Summary of the method: as §1

[71] = molecular target: Neu5Ac(a2-3)Gal(b1-3)GlcNAc
Summary of the method: as §1

[72] = molecular target: Neu5Ac(a2-3)Gal(b1-3)GlcNAc6S
Summary of the method: as §1

[73] = molecular target: Neu5Ac(a2-3)Gal(b1-3)[Fuc(a1-4)]GlcNAc
Summary of the method: as §1

[74] = molecular target: Neu5Ac(a2-3)Gal(b1-3)[Fuc(a1-4)]GlcNAc(b1-3)Gal(b1-4)[Fuc(a1-3)]GlcNAc
Summary of the method: as §1

[75] = molecular target: Neu5Ac(a2-3)Gal(b1-3)[Neu5Ac(a2-3)Gal(b1-4)]GlcNAc
Summary of the method: as §1

B1: FaeGac (Escherichia coli) (protein)
chain: WMTGDFNGSVDIGGSITADDYRQKWEWKVGTGLNGFGNVLNDLTNGGTKLTITVTGNKPILLGRTKEAFATPVTGGVDGIPHIAFTDYEGASVVLRNPDGETNKKGLAYFVLPMKNAEGTKVGSVKVNASYAGVLGRGGVTSADGELLSLFADGLSSIFYGGLPRGSELSAGSAAAERTKLFGSLSRNDILGQIQRVNANITSLVDVAGSYRENMEYTDGTVVSAAYALGIANGQTIEATFNQAVTTSTQWSAPLNVAITYY
**Q.** Which results are given for B1?
**A.** glycan array binding signal (z-score) [1]: -0.616; glycan array binding signal (z-score) [2]: -0.587; glycan array binding signal (z-score) [3]: -0.536; glycan array binding signal (z-score) [4]: -0.133; glycan array binding signal (z-score) [5]: -0.003; glycan array binding signal (z-score) [6]: -0.15; glycan array binding signal (z-score) [7]: -0.048; glycan array binding signal (z-score) [8]: -0.218; glycan array binding signal (z-score) [9]: 0.35; glycan array binding signal (z-score) [10]: 0.303; glycan array binding signal (z-score) [11]: 0.384; glycan array binding signal (z-score) [12]: 0.005; glycan array binding signal (z-score) [13]: -0.64; glycan array binding signal (z-score) [14]: -0.43; glycan array binding signal (z-score) [15]: -0.253; glycan array binding signal (z-score) [16]: -0.495; glycan array binding signal (z-score) [17]: -0.124; glycan array binding signal (z-score) [18]: 0.68; glycan array binding signal (z-score) [19]: -0.602; glycan array binding signal (z-score) [20]: 0.387; glycan array binding signal (z-score) [21]: 0.516; glycan array binding signal (z-score) [22]: -0.196; glycan array binding signal (z-score) [23]: 0.702; glycan array binding signal (z-score) [24]: 0.379; glycan array binding signal (z-score) [25]: 10.9; glycan array binding signal (z-score) [26]: 6.96; glycan array binding signal (z-score) [27]: 2.95; glycan array binding signal (z-score) [28]: 0.954; glycan array binding signal (z-score) [29]: 1.3; glycan array binding signal (z-score) [30]: 1.4; glycan array binding signal (z-score) [31]: 0.517; glycan array binding signal (z-score) [32]: 0.413; glycan array binding signal (z-score) [33]: 0.073; glycan array binding signal (z-score) [34]: 0.526; glycan array binding signal (z-score) [35]: 0.721; glycan array binding signal (z-score) [36]: -0.178; glycan array binding signal (z-score) [37]: 0.137; glycan array binding signal (z-score) [38]: -0.283; glycan array binding signal (z-score) [39]: -0.178; glycan array binding signal (z-score) [40]: 0.249; glycan array binding signal (z-score) [41]: 0.002; glycan array binding signal (z-score) [42]: 1.36; glycan array binding signal (z-score) [43]: 1.32; glycan array binding signal (z-score) [44]: 0.578; glycan array binding signal (z-score) [45]: 0.673; glycan array binding signal (z-score) [46]: 0.508; glycan array binding signal (z-score) [47]: -0.053; glycan array binding signal (z-score) [48]: 0.223; glycan array binding signal (z-score) [49]: 1.59; glycan array binding signal (z-score) [50]: 0.309; glycan array binding signal (z-score) [51]: -0.645; glycan array binding signal (z-score) [52]: -0.627; glycan array binding signal (z-score) [53]: 0.631; glycan array binding signal (z-score) [54]: 2.13; glycan array binding signal (z-score) [55]: -0.043; glycan array binding signal (z-score) [56]: 0.546; glycan array binding signal (z-score) [57]: 0.169; glycan array binding signal (z-score) [58]: 0.325; glycan array binding signal (z-score) [59]: 1.36; glycan array binding signal (z-score) [60]: -0.13; glycan array binding signal (z-score) [61]: 0.428; glycan array binding signal (z-score) [62]: 0.445; glycan array binding signal (z-score) [63]: -0.194; glycan array binding signal (z-score) [64]: -0.582; glycan array binding signal (z-score) [65]: -0.596; glycan array binding signal (z-score) [66]: -0.369; glycan array binding signal (z-score) [67]: -0.732; glycan array binding signal (z-score) [68]: -0.517; glycan array binding signal (z-score) [69]: -0.733; glycan array binding signal (z-score) [70]: -0.671; glycan array binding signal (z-score) [71]: -0.422; glycan array binding signal (z-score) [72]: -0.071; glycan array binding signal (z-score) [73]: -0.643; glycan array binding signal (z-score) [74]: 0.648; glycan array binding signal (z-score) [75]: -0.71
